Where “and” joins values, the source holds several entries; their conditions need not be identical. Equal entries are not always repeated. The campaign covered roughly 110,000 compounds. About 230 (0.21%) showed an effect of 50% or more. The list shows a part of the results.
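Also: 30 min substrate incubation versus DMSO and 10 µM JCP410 controls.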

The assay deals with DPAP1 (Plasmodium falciparum, UniProt Q8IIJ9). The assay is described as follows: primary screen, percent inhibition; read by cleavage of a fluorogenic dipeptide substrate; higher = more effect of the substance. Also noted: species or system P. falciparum D10 trophozoite lysates; single well.
Chain of DPAP1 (Q8IIJ9 whole entry, looked up): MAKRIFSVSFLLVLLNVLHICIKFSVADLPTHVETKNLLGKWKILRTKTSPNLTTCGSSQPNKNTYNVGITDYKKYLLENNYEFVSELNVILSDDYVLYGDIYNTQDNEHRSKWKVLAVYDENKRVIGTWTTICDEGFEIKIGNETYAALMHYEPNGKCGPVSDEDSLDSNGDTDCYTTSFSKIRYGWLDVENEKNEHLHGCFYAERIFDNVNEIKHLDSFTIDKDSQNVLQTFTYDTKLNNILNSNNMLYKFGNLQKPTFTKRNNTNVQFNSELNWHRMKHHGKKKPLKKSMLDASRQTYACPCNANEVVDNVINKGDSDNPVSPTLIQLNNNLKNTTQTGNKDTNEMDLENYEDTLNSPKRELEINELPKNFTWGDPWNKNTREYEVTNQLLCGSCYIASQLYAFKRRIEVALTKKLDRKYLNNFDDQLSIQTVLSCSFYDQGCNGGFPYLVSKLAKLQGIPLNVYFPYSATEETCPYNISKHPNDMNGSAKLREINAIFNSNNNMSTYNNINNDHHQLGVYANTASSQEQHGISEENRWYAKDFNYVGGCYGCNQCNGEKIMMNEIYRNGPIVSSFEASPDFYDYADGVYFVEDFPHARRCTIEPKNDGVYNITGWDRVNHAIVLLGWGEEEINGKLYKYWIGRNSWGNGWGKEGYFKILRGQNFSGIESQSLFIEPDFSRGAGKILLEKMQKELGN
Take `NC(=O)C1CCCN(Cc2ccccc2C(F)(F)F)C1` (stereo not drawn): the “% Inhibition @ 10 uM” value is reported as -4.04%.
Take `COc1ccc(CNC(=O)c2ccc(CS(=O)(=O)Cc3ccccc3F)o2)cc1`: the “% Inhibition @ 10 uM” value was 0.718%.
Consider `COc1cc(S(=O)(=O)Nc2cccnc2)c(OC)cc1Cl`, for which the “% Inhibition @ 10 uM” value was -10.2%.
The value for `COc1cc(C2C(C#N)=C(N)Oc3c2c(C)nn3-c2ccccc2)cc(OC)c1OC` (stereo not drawn) was -2.89%; that for `Oc1nc(SCc2cccc3nsnc23)nc2ccccc12` was 4.55%; that for `O=C(CCCOc1ccc(Cl)cc1Cl)N1CCCCC1CO` (stereo not drawn) was 0.215%.
Regarding `Cc1ccc(C2=NS(=O)(=O)N(C)C(C(=O)N3CCN(Cc4ccccc4)CC3)=C2)cc1`, the “% Inhibition @ 10 uM” value was -1.06%.
For `O=C(O)CCCCCN1C(=O)C(O)=C(C(=O)/C=C/c2ccccc2)C1c1ccccc1` (stereo not drawn), the “% Inhibition @ 10 uM” value is recorded as -7.58%.
On to `CCn1cc(Cl)c(C(=O)NC(C)c2ccc(C(C)(C)C)cc2)n1` (stereo not drawn), for which the “% Inhibition @ 10 uM” value is 0.658%.
For `CN(Cc1ccc(Cl)cc1)S(=O)(=O)c1nnc(NC(=O)c2cccs2)s1`, the “% Inhibition @ 10 uM” value is -3.8%.
Consider `Cc1ccc(OCCCCc2c(C)n[nH]c2C)cc1C`, for which the “% Inhibition @ 10 uM” value is 0.815%.
As for `COc1ccc(Cl)cc1NC(=O)COc1ccccc1C(C)C`, the “% Inhibition @ 10 uM” value was 2.76%.
The value for `CCOc1ccc(CCNc2cnnc3c(Cl)cccc23)cc1OCC` was -0.705%; that for `CC(C)C[C@H](Nc1nc(=O)oc2ccccc12)C(=O)NCC#N` was -3.48%.
Take `COc1cccc(N(CC(=O)Nc2cc(C)ccc2C)S(=O)(=O)c2ccccc2)c1`: the “% Inhibition @ 10 uM” value is -0.333% and 3.72%.
In the case of `CCCN1CNc2nc3ccccc3n2C1`, the “% Inhibition @ 10 uM” value amounted to 1.72%.
Regarding `COc1ccccc1N1CCN(C(=O)c2cccc(F)c2)CC1`, the “% Inhibition @ 10 uM” value is reported as -7.02%.
The value for `Cc1ccc(CN2C(=O)c3ccc(C)cc3C2=O)cc1` was 4.44%; that for `CCOc1ccc2nc(SCC(=O)Nc3ccccc3OC)sc2c1` was 4.32%.
The value for `CN(CCc1ccccc1)Cc1ccc(O)cc1` was 0.472%; that for `O=C(Nc1nc(-c2ccc(F)cc2F)cs1)c1ccc2c(c1)OCO2` was -3.72%.
On to `Cc1ccc2nc3c(O)n(CCN4CCCCC4C)cnc-3c2c1` (stereo not drawn), for which the “% Inhibition @ 10 uM” value stood at 4.8%.
In the case of `COc1ccc(C2CC(=O)C(/C=N/Cc3ccccc3)=C(O)C2)cc1` (stereo not drawn), the “% Inhibition @ 10 uM” value is listed as 0.685%.
For the compound `COc1ccc(CCC(=O)Nc2ccc(C)cc2Br)cc1`, the “% Inhibition @ 10 uM” value is 2.01%.
On to `O=C1CCCC2=C1C(c1ccc(Cl)cc1)C1=C(CCCC1=O)O2`, for which the “% Inhibition @ 10 uM” value is on record as 1.9%.
For the compound `CC(C)CCNC(=O)c1cc2oc3ccccc3c2n1C`, the “% Inhibition @ 10 uM” value is -0.281%.
Consider `O=C(NCc1ccccc1)c1ccccc1NC(=O)C1CC=CCC1C(=O)O` (stereo not drawn), for which the “% Inhibition @ 10 uM” value is -2.29%.
Consider `Oc1ccc(CNc2ccc(F)cc2)c2cccnc12`, for which the “% Inhibition @ 10 uM” value is reported as 2.84%.
The value for `CCOc1ccc(-c2nonc2NC(=O)COc2c(C)cccc2C)cc1OCC` was -1.47%.
As to `CC(C)(C)OC(=O)N1CCC(c2c(C(=O)Nc3cccnc3)cnn2-c2ccccc2)CC1`, the “% Inhibition @ 10 uM” value is given as 5.53%.
Turning to `O=S(=O)(c1cccc(S(=O)(=O)N2CCOCC2)c1)c1ccc(Cl)c(S(=O)(=O)N2CCOCC2)c1`, the “% Inhibition @ 10 uM” value is recorded as 3.25%.
Take `Cc1cc(C(=O)O)c2c(C)nn(-c3ccc(C)c(C)c3)c2n1`: the “% Inhibition @ 10 uM” value is 2.39%.
`N#CCN1C(=O)C(O)=C(C(=O)c2ccccc2)C1c1cccnc1` (stereo not drawn): the “% Inhibition @ 10 uM” value was found to be 0.408%.
`Cc1ccc(CS(=O)(=O)CCC(=O)NCCCN2CCCC2)cc1`: the “% Inhibition @ 10 uM” value was 2.18%.
In the case of `O=C(O)c1ccc(-c2nnc(-c3cccc(Br)c3)o2)cc1`, the “% Inhibition @ 10 uM” value amounted to 1.26%.
Turning to `CCn1c2ccccc2c2nnc(NCCc3ccc(Cl)cc3)nc21`, the “% Inhibition @ 10 uM” value is listed as 3.92%.
On to `COc1ccc(C(=O)Nc2ccc3ccccc3c2)c(OC)c1`, for which the “% Inhibition @ 10 uM” value came to 0.467%.
On to `CCCCOc1ccc(NC(=O)c2ccc(F)cc2)cc1`, for which the “% Inhibition @ 10 uM” value worked out at 2.13%.
Consider `CNS(=O)(=O)c1cn(CC(=O)Nc2nccs2)cc1S(=O)(=O)NC`, for which the “% Inhibition @ 10 uM” value was -2.68%.
In the case of `CCCCN(C)c1ncnc2c1sc1nc(C(C)C)c3c(c12)CC(C)(C)OC3`, the “% Inhibition @ 10 uM” value is given as -3.13%.
For the compound `O=C(Cn1cnc2c(oc3ccccc32)c1=O)NCc1ccc(F)cc1`, the “% Inhibition @ 10 uM” value is -3.27%.
Regarding `CC(C)COc1ccc(C(O)C(CN2CCCC2)c2ccccc2)cc1` (stereo not drawn), the “% Inhibition @ 10 uM” value is 2.78%.
In the case of `COc1ccc(OC)c(C2CC(=O)N(c3sc4c(c3C#N)CCCCC4)C3=C2C(=O)CCC3)c1` (stereo not drawn), the “% Inhibition @ 10 uM” value is recorded as 2.72%.
For `CCCc1cc(O)nc(SCC(=O)Nc2ccccc2)n1`, the “% Inhibition @ 10 uM” value was -10.8%.
The value for `O=C(NCCN1CCOCC1)c1cc(-c2ccc(Cl)cc2Cl)nc2ccccc12` was -1.89%.
Turning to `CCOC(=O)N1CCN(C2CCC(C)C2)CC1` (stereo not drawn), the “% Inhibition @ 10 uM” value was determined as 1.74%.
For the compound `FC(F)Oc1ccccc1C1CC(c2ccc(Br)cc2)Nc2nnnn21` (stereo not drawn), the “% Inhibition @ 10 uM” value was -5.19%.
`CC1=C(C)CC(C(=O)NCc2ccc(F)cc2)C(C(=O)O)C1` (stereo not drawn): the “% Inhibition @ 10 uM” value is recorded as 8.6%.
The value for `COc1ccc(OC)c(-c2nc(C)sc2CC(=O)O)c1` was 0.032%.
Take `CCC(C)NCc1c(C(=O)O)n(Cc2ccccc2F)c2cc(C)ccc12` (stereo not drawn): the “% Inhibition @ 10 uM” value was -1.08%.
Regarding `CCc1c(C)sc(NC(=O)c2cc(-c3ccc(Cl)cc3)on2)c1C#N`, the “% Inhibition @ 10 uM” value is reported as -4.07%.

The values above are taken from PMC6919601, “Identification of Plasmodium dipeptidyl aminopeptidase allosteric inhibitors by high throughput screening” (PLoS ONE, 2019).
